# From the supplement of paper PMC8728848
# The other results are listed elsewhere or left out.
# Experiments:
# Assay in all cases: glycan array binding signal (z-score within array); higher = stronger binding
# Conditions in all cases: glycan notation: IUPAC condensed, linker removed
# [1] = biological target: Gal(a1-6)Glc
# Summary of the method: (§1)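 Glycan array binding is given as a within-array Z-score, which can be read as non-binding when negative. The arrays, 3228 of them, came from the Consortium for Functional Glycomics database and were retained only where the protein sequence was available. Z-scores were averaged across arrays of the same protein sequence at different concentrations or buffers and across linkers.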
# [2] = biological target: Gal(b1-2)Gal
# Summary of the method: as §1
# [3] = biological target: Gal(b1-3)Gal
# Summary of the method: as §1
# [4] = biological target: Gal(b1-3)Gal(b1-4)GlcNAc
# Summary of the method: as §1
# [5] = biological target: Gal(b1-3)GalNAc
# Summary of the method: as §1
# [6] = biological target: Gal(b1-3)GalNAc(a1-3)[Fuc(a1-2)]Gal(b1-4)Glc
# Summary of the method: as §1
# [7] = biological target: Gal(b1-3)GalNAc(a1-3)[Fuc(a1-2)]Gal(b1-4)GlcNAc
# Summary of the method: as §1
# [8] = biological target: Gal(b1-3)GalNAc(b1-3)Gal
# Summary of the method: as §1
# [9] = biological target: Gal(b1-3)GalNAc(b1-3)Gal(a1-4)Gal(b1-4)Glc
# Summary of the method: as §1
# [10] = biological target: Gal(b1-3)GalNAc(b1-4)Gal(b1-4)Glc
# Summary of the method: as §1
# [11] = biological target: Gal(b1-3)GalNAc(b1-4)[Neu5Ac(a2-3)]Gal(b1-4)Glc
# Summary of the method: as §1
# [12] = biological target: Gal(b1-3)GlcNAc
# Summary of the method: as §1
# [13] = biological target: Gal(b1-3)GlcNAc(a1-3)Gal(b1-4)GlcNAc
# Summary of the method: as §1
# [14] = biological target: Gal(b1-3)GlcNAc(a1-6)Gal(b1-4)GlcNAc
# Summary of the method: as §1
# [15] = biological target: Gal(b1-3)GlcNAc(b1-2)Man
# Summary of the method: as §1
# [16] = biological target: Gal(b1-3)GlcNAc(b1-2)Man(a1-3)[Gal(b1-3)GlcNAc(b1-2)Man(a1-6)]Man(b1-4)GlcNAc(b1-4)GlcNAc
# Summary of the method: as §1
# [17] = biological target: Gal(b1-3)GlcNAc(b1-2)Man(a1-3)[Gal(b1-3)GlcNAc(b1-2)Man(a1-6)]Man(b1-4)GlcNAc(b1-4)[Fuc(a1-6)]GlcNAc
# Summary of the method: as §1
# [18] = biological target: Gal(b1-3)GlcNAc(b1-2)Man(a1-3)[GlcNAc(b1-4)][Gal(b1-3)GlcNAc(b1-2)Man(a1-6)]Man(b1-4)GlcNAc(b1-4)GlcNAc
# Summary of the method: as §1
# [19] = biological target: Gal(b1-3)GlcNAc(b1-2)[Gal(b1-3)GlcNAc(b1-6)]Man(a1-6)[Gal(b1-3)GlcNAc(b1-2)Man(a1-3)]Man(b1-4)GlcNAc(b1-4)GlcNAc
# Summary of the method: as §1
# [20] = biological target: Gal(b1-3)GlcNAc(b1-3)Gal(b1-3)GlcNAc
# Summary of the method: as §1
# [21] = biological target: Gal(b1-3)GlcNAc(b1-3)Gal(b1-4)Glc
# Summary of the method: as §1
# [22] = biological target: Gal(b1-3)GlcNAc(b1-3)Gal(b1-4)GlcNAc
# Summary of the method: as §1
# [23] = biological target: Gal(b1-3)GlcNAc(b1-3)Gal(b1-4)GlcNAc(b1-2)Man(a1-3)[Gal(b1-3)GlcNAc(b1-3)Gal(b1-4)GlcNAc(b1-2)Man(a1-6)]Man(b1-4)GlcNAc(b1-4)GlcNAc
# Summary of the method: as §1
# [24] = biological target: Gal(b1-3)GlcNAc(b1-3)Gal(b1-4)GlcNAc(b1-2)[Gal(b1-3)GlcNAc(b1-3)Gal(b1-4)GlcNAc(b1-6)]Man(a1-6)[Gal(b1-3)GlcNAc(b1-3)Gal(b1-4)GlcNAc(b1-2)Man(a1-3)]Man(b1-4)GlcNAc(b1-4)[Fuc(a1-6)]GlcNAc
# Summary of the method: as §1
# [25] = biological target: Gal(b1-3)GlcNAc(b1-3)Gal(b1-4)GlcNAc(b1-3)Gal(b1-4)GlcNAc(b1-2)[Gal(b1-3)GlcNAc(b1-3)Gal(b1-4)GlcNAc(b1-3)Gal(b1-4)GlcNAc(b1-6)]Man(a1-6)[Gal(b1-3)GlcNAc(b1-3)Gal(b1-4)GlcNAc(b1-3)Gal(b1-4)GlcNAc(b1-2)Man(a1-3)]Man(b1-4)GlcNAc(b1-4)[Fuc(a1-6)]GlcNAc
# Summary of the method: as §1
# [26] = biological target: Gal(b1-3)GlcNAc(b1-3)Gal(b1-4)GlcNAc(b1-6)[Gal(b1-3)GlcNAc(b1-3)]Gal(b1-4)Glc
# Summary of the method: as §1
# [27] = biological target: Gal(b1-3)GlcNAc(b1-3)Gal(b1-4)[Fuc(a1-3)]GlcNAc
# Summary of the method: as §1
# [28] = biological target: Gal(b1-3)GlcNAc(b1-3)Gal(b1-4)[Fuc(a1-3)]GlcNAc(b1-6)[Gal(b1-3)GlcNAc(b1-3)]Gal(b1-4)Glc
# Summary of the method: as §1
# [29] = biological target: Gal(b1-3)GlcNAc(b1-3)GalNAc
# Summary of the method: as §1
# [30] = biological target: Gal(b1-3)GlcNAc(b1-6)Gal(b1-4)GlcNAc
# Summary of the method: as §1
# [31] = biological target: Gal(b1-3)GlcNAc(b1-6)GalNAc
# Summary of the method: as §1
# [32] = biological target: Gal(b1-3)GlcNAc(b1-6)[Gal(b1-3)]GalNAc
# Summary of the method: as §1
# [33] = biological target: Gal(b1-3)GlcNAc6S
# Summary of the method: as §1
# [34] = biological target: Gal(b1-3)[Fuc(a1-4)]GlcNAc
# Summary of the method: as §1
# [35] = biological target: Gal(b1-3)[Fuc(a1-4)]GlcNAc(b1-2)Man
# Summary of the method: as §1
# [36] = biological target: Gal(b1-3)[Fuc(a1-4)]GlcNAc(b1-2)Man(a1-3)[Gal(b1-3)[Fuc(a1-4)]GlcNAc(b1-2)Man(a1-6)]Man(b1-4)GlcNAc(b1-4)[Fuc(a1-6)]GlcNAc
# Summary of the method: as §1
# [37] = biological target: Gal(b1-3)[Fuc(a1-4)]GlcNAc(b1-3)Gal(b1-3)[Fuc(a1-4)]GlcNAc
# Summary of the method: as §1
# [38] = biological target: Gal(b1-3)[Fuc(a1-4)]GlcNAc(b1-3)Gal(b1-4)[Fuc(a1-3)]GlcNAc
# Summary of the method: as §1
# [39] = biological target: Gal(b1-3)[Fuc(a1-4)]GlcNAc(b1-6)GalNAc
# Summary of the method: as §1
# [40] = biological target: Gal(b1-3)[GlcNAc(b1-6)]GalNAc
# Summary of the method: as §1
# [41] = biological target: Gal(b1-3)[Neu5Ac(a2-6)]GalNAc
# Summary of the method: as §1
# [42] = biological target: Gal(b1-3)[Neu5Ac(a2-6)]GlcNAc(b1-4)Gal(b1-4)Glc
# Summary of the method: as §1
# [43] = biological target: Gal(b1-3)[Neu5Ac(b2-6)]GalNAc
# Summary of the method: as §1
# [44] = biological target: Gal(b1-4)Gal
# Summary of the method: as §1
# [45] = biological target: Gal(b1-4)GalNAc(a1-3)[Fuc(a1-2)]Gal(b1-4)GlcNAc
# Summary of the method: as §1
binder,measurement,setting,value
"HBHA-Rv (Mycobacterium tuberculosum), P0A5P6 (protein) MAENSNIDDIKAPLLAALGAADLALATVNELITNLRERAEETRTDTRSRVEESRARLTKLQEDLPEQLTELREKFTAEELRKAAEGYLEAATSRYNELVERGEAALERLRSQQSFEEVSARAEGYVDQAVELTQEALGTVASQTRAVGERAAKLVGIELPKKAAPAKKAAPAKKAAPAKKAAAKKAPAKKAAAKKVTQK",glycan array binding signal (z-score),[1],-0.054
same,glycan array binding signal (z-score),[2],0.815
same,glycan array binding signal (z-score),[3],-0.264
same,glycan array binding signal (z-score),[4],-0.171
same,glycan array binding signal (z-score),[5],0.238
same,glycan array binding signal (z-score),[6],-0.329
same,glycan array binding signal (z-score),[7],-0.374
same,glycan array binding signal (z-score),[8],-0.345
same,glycan array binding signal (z-score),[9],-0.254
same,glycan array binding signal (z-score),[10],-0.315
same,glycan array binding signal (z-score),[11],-0.003
same,glycan array binding signal (z-score),[12],0.305
same,glycan array binding signal (z-score),[13],-0.406
same,glycan array binding signal (z-score),[14],-0.293
same,glycan array binding signal (z-score),[15],0.373
same,glycan array binding signal (z-score),[16],-0.443
same,glycan array binding signal (z-score),[17],-0.463
same,glycan array binding signal (z-score),[18],0.595
same,glycan array binding signal (z-score),[19],-0.355
same,glycan array binding signal (z-score),[20],-0.381
same,glycan array binding signal (z-score),[21],-0.226
same,glycan array binding signal (z-score),[22],-0.366
same,glycan array binding signal (z-score),[23],-0.396
same,glycan array binding signal (z-score),[24],-0.072
same,glycan array binding signal (z-score),[25],-0.414
same,glycan array binding signal (z-score),[26],-0.472
same,glycan array binding signal (z-score),[27],-0.198
same,glycan array binding signal (z-score),[28],-0.453
same,glycan array binding signal (z-score),[29],0.212
same,glycan array binding signal (z-score),[30],-0.392
same,glycan array binding signal (z-score),[31],-0.248
same,glycan array binding signal (z-score),[32],-0.256
same,glycan array binding signal (z-score),[33],-0.234
same,glycan array binding signal (z-score),[34],0.313
same,glycan array binding signal (z-score),[35],1.28
same,glycan array binding signal (z-score),[36],-0.245
same,glycan array binding signal (z-score),[37],-0.12
same,glycan array binding signal (z-score),[38],-0.166
same,glycan array binding signal (z-score),[39],-0.297
same,glycan array binding signal (z-score),[40],-0.131
same,glycan array binding signal (z-score),[41],0.383
same,glycan array binding signal (z-score),[42],0.417
same,glycan array binding signal (z-score),[43],0.054
same,glycan array binding signal (z-score),[44],0.015
same,glycan array binding signal (z-score),[45],-0.277
